According to PMC8922107:
No constants are given. Whether binding was seen depends on the method and setting. In cells and extracts the contact can be indirect. Some entries that bind do so weakly or less than the wild type. One block for each substance: values may come before it.

The chains behind the UniProt entries cited, without tags or fusion partners. Where a name states a change or a piece, a line headed by the entry shows the natural chain unless it says otherwise.
UniProt P14618: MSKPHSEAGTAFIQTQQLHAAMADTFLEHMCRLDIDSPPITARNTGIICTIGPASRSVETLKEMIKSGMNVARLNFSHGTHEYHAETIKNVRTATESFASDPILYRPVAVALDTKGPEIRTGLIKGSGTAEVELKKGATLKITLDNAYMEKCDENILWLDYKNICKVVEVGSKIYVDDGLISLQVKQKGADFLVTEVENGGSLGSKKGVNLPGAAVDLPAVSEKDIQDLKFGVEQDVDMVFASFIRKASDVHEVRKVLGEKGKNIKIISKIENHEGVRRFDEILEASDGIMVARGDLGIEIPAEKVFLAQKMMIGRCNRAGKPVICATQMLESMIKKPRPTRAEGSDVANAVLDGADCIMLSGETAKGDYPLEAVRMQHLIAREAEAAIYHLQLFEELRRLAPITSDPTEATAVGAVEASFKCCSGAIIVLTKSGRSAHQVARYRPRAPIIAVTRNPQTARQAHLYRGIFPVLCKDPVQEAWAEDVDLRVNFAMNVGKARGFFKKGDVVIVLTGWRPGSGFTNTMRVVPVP
UniProt Q9Y5B9: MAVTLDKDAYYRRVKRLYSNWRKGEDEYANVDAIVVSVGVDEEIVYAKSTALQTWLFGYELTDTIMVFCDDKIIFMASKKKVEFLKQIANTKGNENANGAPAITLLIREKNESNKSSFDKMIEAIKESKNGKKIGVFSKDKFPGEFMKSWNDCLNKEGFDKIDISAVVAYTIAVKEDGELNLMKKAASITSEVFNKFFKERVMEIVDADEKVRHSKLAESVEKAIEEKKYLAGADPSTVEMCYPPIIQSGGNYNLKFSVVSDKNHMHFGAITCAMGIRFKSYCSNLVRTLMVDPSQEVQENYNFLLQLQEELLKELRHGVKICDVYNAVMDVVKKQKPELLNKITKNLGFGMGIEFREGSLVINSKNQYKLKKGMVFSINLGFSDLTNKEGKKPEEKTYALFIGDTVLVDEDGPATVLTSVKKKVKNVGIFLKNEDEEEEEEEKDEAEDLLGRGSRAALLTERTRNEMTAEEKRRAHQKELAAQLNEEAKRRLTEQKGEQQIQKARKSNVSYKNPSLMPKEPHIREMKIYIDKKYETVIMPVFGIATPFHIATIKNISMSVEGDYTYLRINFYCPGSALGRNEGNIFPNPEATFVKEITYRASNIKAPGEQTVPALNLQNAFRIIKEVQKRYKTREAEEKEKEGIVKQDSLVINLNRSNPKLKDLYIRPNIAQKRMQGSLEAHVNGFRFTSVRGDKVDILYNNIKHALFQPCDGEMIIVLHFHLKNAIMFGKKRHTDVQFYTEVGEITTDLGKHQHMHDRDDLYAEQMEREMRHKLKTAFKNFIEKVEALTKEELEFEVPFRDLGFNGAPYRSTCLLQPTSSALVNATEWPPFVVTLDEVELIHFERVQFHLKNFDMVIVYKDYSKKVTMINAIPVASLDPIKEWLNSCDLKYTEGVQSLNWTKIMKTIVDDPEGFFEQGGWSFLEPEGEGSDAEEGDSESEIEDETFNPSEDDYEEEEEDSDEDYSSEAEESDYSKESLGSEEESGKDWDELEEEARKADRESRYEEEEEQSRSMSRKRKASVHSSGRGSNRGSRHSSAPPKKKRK
UniProt Q08945: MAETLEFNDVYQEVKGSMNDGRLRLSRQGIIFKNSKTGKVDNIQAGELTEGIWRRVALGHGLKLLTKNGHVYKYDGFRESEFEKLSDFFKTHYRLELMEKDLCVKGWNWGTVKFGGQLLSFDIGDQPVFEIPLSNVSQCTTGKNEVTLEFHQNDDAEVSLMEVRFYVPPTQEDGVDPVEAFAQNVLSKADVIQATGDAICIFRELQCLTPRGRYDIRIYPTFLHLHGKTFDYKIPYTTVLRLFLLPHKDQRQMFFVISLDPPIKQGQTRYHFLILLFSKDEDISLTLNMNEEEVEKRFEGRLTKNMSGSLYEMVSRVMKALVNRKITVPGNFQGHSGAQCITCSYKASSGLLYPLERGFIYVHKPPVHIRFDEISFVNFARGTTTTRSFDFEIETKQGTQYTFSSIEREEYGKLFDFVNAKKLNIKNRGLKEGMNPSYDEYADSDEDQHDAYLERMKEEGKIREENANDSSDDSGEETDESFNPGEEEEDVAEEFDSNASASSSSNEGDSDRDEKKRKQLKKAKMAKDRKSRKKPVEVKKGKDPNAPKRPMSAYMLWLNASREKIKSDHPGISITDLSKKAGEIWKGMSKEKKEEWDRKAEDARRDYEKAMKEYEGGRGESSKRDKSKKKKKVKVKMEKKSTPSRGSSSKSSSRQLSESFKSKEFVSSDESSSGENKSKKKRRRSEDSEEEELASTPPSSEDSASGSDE
UniProt P31749: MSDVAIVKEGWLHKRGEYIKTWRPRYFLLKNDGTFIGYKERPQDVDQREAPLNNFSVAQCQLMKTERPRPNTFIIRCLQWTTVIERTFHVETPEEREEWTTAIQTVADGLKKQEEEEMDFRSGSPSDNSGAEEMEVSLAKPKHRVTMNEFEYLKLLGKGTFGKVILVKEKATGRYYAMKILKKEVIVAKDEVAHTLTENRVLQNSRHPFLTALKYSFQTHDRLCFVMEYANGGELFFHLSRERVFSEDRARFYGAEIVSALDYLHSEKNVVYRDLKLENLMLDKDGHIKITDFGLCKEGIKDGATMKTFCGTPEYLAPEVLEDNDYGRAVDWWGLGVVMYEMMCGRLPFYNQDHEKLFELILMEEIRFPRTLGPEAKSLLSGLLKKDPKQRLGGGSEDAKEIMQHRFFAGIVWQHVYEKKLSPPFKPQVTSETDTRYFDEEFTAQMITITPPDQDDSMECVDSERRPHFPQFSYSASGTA

Experiments:
[1] = molecular target: Flag-PKM2 WT, expressed in HEK293T cells (UniProt P14618); test: co-IP; HEK293T cells co-transfected with the two tagged proteins, with or without etoposide (200 x 10^-6 M, 1 h); anti-Flag antibody where stated
[2] = molecular target: HA-SPT16, expressed in HEK293T cells (UniProt Q9Y5B9); test: as above
[3] = molecular target: SFB-SSRP1 WT (S peptide-flag-streptavidin binding peptide-tagged SSRP1), expressed in U251 cells (human) (UniProt Q08945); test: co-IP; U251 cells transfected with Flag-SPT16 or SFB-SSRP1, etoposide (200 x 10^-6 M) for indicated time; whole-cell lysates prepared without sonication
[4] = molecular target: Flag-tagged SPT16 (Flag-SPT16), expressed in U251 cells (UniProt Q9Y5B9); test: as above
[5] = molecular target: SFB-SSRP1 WT, expressed in HEK293T cells (human) (UniProt Q08945); test: condition: only precipitated complex treated with CIP; co-IP; as a10, the precipitated complex of SSRP1 or SPT16 then treated with calf-intestinal alkaline phosphatase (CIP)
[6] = molecular target: Flag-SPT16, expressed in HEK293T cells (UniProt Q9Y5B9); test: as above
[7] = molecular target: SFB-SSRP1 WT, expressed in HEK293T cells (human) (UniProt Q08945); test: co-IP; HEK293T cells co-transfected with the two tagged proteins, with or without etoposide (200 x 10^-6 M, 1 h); anti-Flag antibody where stated
[8] = molecular target: Flag-SPT16, expressed in HEK293T cells (UniProt Q9Y5B9); test: as above

- binding [1]: binds
Substance: HA-AKT1, expressed in HEK293T cells (from UniProt P31749 1-480) (enzyme)

- binding [2]: binds
Substance: Flag-PKM2 WT, expressed in HEK293T cells (from UniProt P14618 1-531) (enzyme)

- binding [3]: binds
- binding [4]: binds
Substance: PKM2, endogenous in U251 cells (from UniProt P14618 1-531) (enzyme)

- binding [5]: no binding
- binding [6]: no binding
- binding [7]: binds
- binding [8]: binds
Substance: HA-PKM2 WT, expressed in HEK293T cells (from UniProt P14618 1-531) (enzyme)

- binding [2]: no binding
Substance: Flag-PKM2 S222A, expressed in HEK293T cells (from UniProt P14618 1-531) (enzyme)

- binding [7]: no binding
Substance: HA-PKM2 S222A, expressed in HEK293T cells (from UniProt P14618 1-531) (enzyme)
